This passage reports binding signal results from PMC12136788.

The list shows a part of the results.

The chains are these.
T1: UNK ZnF1-3 (human, UniProt Q9C0B0 31-174)
T1 sequence: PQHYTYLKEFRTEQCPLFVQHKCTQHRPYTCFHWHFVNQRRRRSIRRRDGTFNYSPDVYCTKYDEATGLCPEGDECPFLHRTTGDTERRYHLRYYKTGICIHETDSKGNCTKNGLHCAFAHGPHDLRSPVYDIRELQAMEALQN

B1: 117584449_117584569_2178_CDS_ENSMUSG00000025571_ENSMUST00000138299|mouse|control|control (ssRNA)
RNA: GGGAGUUCUACAGUCCGACGAUCUGGCCCCCCAAUCCACCCUGUCCCUGUCUGCUUAACAGAAGCAGCUCCUCCCCAGUUACUCACAUUGUUGUCUUGGGGCUUAUGAGCCCAGUUCUGCUGGGGACCAGGCUUGAGAGACUCCAACAGAGGAUUGAGCAUCA
B2: chr1:219384882:219384883:+_ENSG00000143353_ENST00000366928|hu_mus|FALSE|FALSE (ssRNA)
RNA: GGGAGUUCUACAGUCCGACGAUCGCUCACUCCUAGAGAUUUCAGUUUUGAGUUUGUCUCCUUGCCCCAAGCAUGCAGAACUAGGUUAUCUGCAGAGCCGUGACACUGGAAGAGCUCAGGGAGCAUGCGGCCACCUUGCUGAAGCAACAGAGGAUUGAGCAUCA
B3: chr18:48442549:48442550:+_ENSG00000082212_ENST00000321341|hu_hu|motif|central (ssRNA)
RNA: GGGAGUUCUACAGUCCGACGAUCAAUUGAUCUAACAUGACCUCUGUCUGAGAUCGAAAUAAAUAAUCCCUUAGGUCUUCGGAAGAUGUGUCCAUACUGGGAGCAGGCAAGACCAACCGUCGGUGUAUAUACAAUUGGCAUUAACAACAGAGGAUUGAGCAUCA
B4: chr16:94913618:94913619:+_ENSMUSG00000022897_ENSMUST00000122284|mus_hu|FALSE|FALSE (ssRNA)
RNA: GGGAGUUCUACAGUCCGACGAUCGUCAUGUAAUGUGCAGGACCUGUAUUAGCAGAAAAUUGGUAUGUUGGAUGUCCAGCUAUGCCAGUCUCUUGGCGGGGAUUGGAGUAGACGGUCAAAUUAACGUCCAUAGCUCCAUUCUGUCAACAGAGGAUUGAGCAUCA
B5: chr6:38652254:38652255:-_ENSG00000124767_ENST00000373365|hu_hu|hu_hu_hu_mus_False|68_68 (ssRNA)
RNA: GGGAGUUCUACAGUCCGACGAUCCGAGAACUUCAUAGCAGGGAAGUCAAGCUUCUGCAGGAGGGUCAUUCCAAGAACCCUCGUAUAAAAAUCCAGGGACUUCUUAGGAUCCUUAAUUCUUAGCAUCGUUUGCUGCAGUAGAAACAACAGAGGAUUGAGCAUCA
B6: chr14:76904430:76904431:+_ENSMUSG00000022010_ENSMUST00000022587|mus_mus|mus_mus_mus_hu_True|8_28 (ssRNA)
RNA: GGGAGUUCUACAGUCCGACGAUCUGCAGCCAAAAACACCCUCGUGGAAAAAAAGAGGGAACACCAGCAGCCUUGUAUAAGCUAGAUAAAAUCUUCUGGCUUUCCGCAGCUCAGGGCGAAACAGAAAUGGUGCUGGCUAAUUUACAACAGAGGAUUGAGCAUCA
B7: chr12:16048344:16048345:+_ENSG00000023734_ENST00000419869|hu_hu|hu_hu_hu_mus_True|58_68 (ssRNA)
RNA: GGGAGUUCUACAGUCCGACGAUCAGAUCGUCCAUAAGUAAUAACCAAAAUCUCUCCUUCAGGAAUAUAUUCCAUACUACUAACAGACAUAUUAAAAUUCAGAGAUUUCACUUCUGUCAUUGUGGCAUGAUCCCAGAGCCGAACCAACAGAGGAUUGAGCAUCA
B8: chr4:56291666:56291667:+_ENSG00000134851_ENST00000381334|hu_hu|motif|central (ssRNA)
RNA: GGGAGUUCUACAGUCCGACGAUCACAGUAUUUUUCCAUCACUUUUAGUUGUAAUGUACACUAUGUACAGAAAGAUAAUACGGCCGGUUUUAAACUAAAUAUAGAUGAACAAACAGCUUGUUAAAAACCAGAAUCAGGGCUUAUCAACAGAGGAUUGAGCAUCA
B9: chrX:71549762:71549763:+_ENSMUSG00000019087_ENSMUST00000019231|mus_mus|mus_mus_mus_hu_False|8_8 (ssRNA)
RNA: GGGAGUUCUACAGUCCGACGAUCAAACCCGUGUACUUCUUAUUGUUAGCACAACAUCACCAGAAAACGAUAACGACAGCCAAGCAGGACAGACAGUUAAGUAGUACUUCCACACUCCCAAACUCAGAGGAACCUCAAACCUUACAACAGAGGAUUGAGCAUCA
B10: chr16:32231720:32231721:-_ENSMUSG00000035764_ENSMUST00000042732|mus_mus|motif|central (ssRNA)
RNA: GGGAGUUCUACAGUCCGACGAUCUUGACAAAUUUAAUUCUCAAGGACCCCAAGAACCCCAGCGAGUCACUCUCUGUCCCGGAUUUUAUUAGAUUUAAAACAAAAUAUACAUACAGCAAUCAUGUAAAAAGUACAAAGAUUUUACAACAGAGGAUUGAGCAUCA
B11: 114882305_114883836_1875_CDS_ENSG00000102024_ENST00000355899|human|control|control (ssRNA)
RNA: GGGAGUUCUACAGUCCGACGAUCCAUGACCAUCUUGGGCUUUACUUCCACAAGGUCUUCAGGGAGAGCAUACACUCUGGCUCCGAUUCUUCUAGCCAUUGACACUGCAUACUUGGCAUUAUUGUGCUUGUCAUCUUCUGUUAGCAACAGAGGAUUGAGCAUCA
B12: chr8:104447970:104447971:+_ENSG00000164934_ENST00000297579|hu_hu|hu_hu_hu_mus_False|48_98 (ssRNA)
RNA: GGGAGUUCUACAGUCCGACGAUCAUACACUUCCCUGCUUCGACUUUUGUCCACAGGAAAGAUUCUAAUAGACUUAUCAAAGCUGGCAGACACAAACUCCUUCCCAGUGGGAGAGUAGUCCACAUCAAGUACUGCAGACACGUGCAACAGAGGAUUGAGCAUCA
B13: chr18:12984129:12984130:+_ENSG00000085415_ENST00000262124|hu_hu|motif|central (ssRNA)
RNA: GGGAGUUCUACAGUCCGACGAUCCUUUCUGCCAGCAGAAGAUCCAUUUAAUGAAUUCUGAAGACUUGGAAUAGUUGAACCGGGGGAAGGAUUUGAGGUUCCCUGCUGAGAACUCCCAUUGACUGGGCUCCCAUUACCUUUCAACAACAGAGGAUUGAGCAUCA
B14: chr4:109034340:109034341:+_ENSMUSG00000028552_ENSMUST00000102729|mus_hu|FALSE|FALSE (ssRNA)
RNA: GGGAGUUCUACAGUCCGACGAUCCUCUUCUCUAGCUUUUGCCAAUUCUUCUUCGUAAGUGGAGAUCUGCGAUUCCUGACUAGUUAAUUCAGCUUUCAGAGAAGAGAUCAGUUGGGCCUCCUCAGCACAUUUCUUUCUGACUUCCAACAGAGGAUUGAGCAUCA

The target in the assay is T1, UNK ZnF1-3. Nature of the assay: nsRBNS (natural sequence RNA bind-n-seq); RBNS binding buffer (assumed for nsRBNS): 25 mM Tris pH 7.5, 150 mM KCl, 3 mM MgCl2, 0.01% Triton X-100, 500 ug/ml BSA, 20 U/ml SUPERase-In, 4 C; UNK is unkempt and MSI1 is Musashi-1; names of the RNAs are library labels; protein concentration not given here; high values mean tight binding.
B1 gave a binding signal of 0.64 enrichment R.

As to B2, the binding signal was determined as 1.15 enrichment R.

Consider B3, for which the binding signal amounted to 1.16 enrichment R.

In the case of B4, the binding signal stood at 0.917 enrichment R.

Regarding B5, the binding signal stood at 0.741 enrichment R.

B6 returned a binding signal of 1.9 enrichment R.

Consider B7, for which the binding signal was 0.853 enrichment R.

Molecule B8 displayed a binding signal of 1.19 enrichment R.

As to B9, the binding signal amounted to 1.56 enrichment R.

As to B10, the binding signal was 2.25 enrichment R.

On to B11, for which the binding signal was 0.672 enrichment R.

In turn, B12 had a binding signal of 0.887 enrichment R.

B13 registered a binding signal of 0.834 enrichment R.

With B14, the binding signal came out at 0.575 enrichment R.
